ChEMBL document CHEMBL4888484, “Replenishing the malaria drug discovery pipeline: Screening and hit evaluation of the MMV Hit Generation Library 1 (HGL1) against asexual blood stage Plasmodium falciparum ,using a nano luciferase reporter read-out” (2022)
In all, about 150,000 compounds went through this assay and about 540 (0.36%) showed an effect of 50% or more. The list shows a part of the results.

The compounds below were run on Plasmodium falciparum (assay: Primary screen in NF54 nanoGlo assay, in single point, at 2uM, 72h; a lower Z score goes with more inhibition). Details: timepoint 72 hour.
Assay type: functional, Erythrocyte

| Compound | % Inhibition | Z score |
| --- | --- | --- |
| Cc1cc(C)c(NCC(=O)NCCc2cccs2)c(C)c1 | -12% | 2.31 |
| Cc1cccc(OCC(=O)NC(C)C)c1 | 3% | -0.32 |
| CCOc1ccc(S(=O)(=O)N[C@H]2CCCN(c3ncccn3)C2)cc1 | 2% | -0.34 |
| O=C(Nc1ccc2c(c1)OCCO2)c1cn(Cc2cccc(F)c2)nc1OCc1cccc(F)c1 | 11% | -1.26 |
| COCCN(C)C[C@H]1C[C@H](CO)CN(c2nc3cc(C)ccc3o2)C1 | -19% | 1.66 |
| C[C@H]1CCCN(C(=O)Cc2cccc3ccccc23)C1 | -10% | 1.27 |
| COCCCCNC(=O)CNc1cc(Cl)ccc1OC | -13% | 1.8 |
| Cc1ccc(Cl)cc1S(=O)(=O)N[C@@H](C)c1nccs1 | -2% | 0.43 |
| O=C(Nc1ccc(C(=O)N2CCCCC2)cc1)c1cc(Cl)ccc1Cl | -9% | 1.33 |
| O=C(NCCn1ccnc1C1CC1)Nc1cccs1 | 11% | -1.44 |
| Cc1ccc(N(C(=O)c2cc(C3CC3)on2)C2CCCCC2)nc1 | -7% | 1.38 |
| O=C(Cc1coc2cc(Cl)ccc12)N[C@@H](CC1CC1)C(=O)O | -16% | 1.99 |
| COc1ccc(N2CCN(C(=O)N[C@H]3CN(C)C[C@@H]3OC)CC2)cc1 | 2% | -0.3 |
| CC(NC(=O)NC1COCC1O)C(C)c1ccccc1C(F)(F)F (stereo unspecified) | -6% | 0.77 |
| Cc1ccc(-n2ncnc2CCCN2CCCC2=O)c(C)c1 | -16% | 2.04 |
| CCC(c1cccs1)N1C(=O)[C@H]2CN(S(=O)(=O)c3cccc(Cl)c3)C[C@H]2C1=O (stereo partly specified) | 4% | -0.81 |
| COC(=O)c1cc(OCC(=O)Nc2cc(F)ccc2F)c2cc(F)ccc2n1 | -11% | 1.91 |
| CCOc1ccccc1NC(=O)C[C@H]1C(=O)Nc2ccccc2N1C(=O)COc1ccccc1OC | 3% | -0.47 |
| COc1ccc(-n2nc(C)c3sc(N4CCN(C(=O)C(C)(C)C)CC4)nc32)cc1 | 8% | -0.96 |
| Cc1cc(NC(=O)N(C)Cc2ccccn2)ccc1N1CCCC1 | 4% | -0.73 |
| CCOC(=O)C1CCN(C(=O)Cc2ccc(N(Cc3cccc(F)c3)C(=O)CC(C)C)cc2)CC1 | -6% | 0.75 |
| Cc1nc(CO[C@H]2CCCN(Cc3ccc4cc[nH]c4c3)C2)no1 | 7% | -1.03 |
| O=C([C@@H](O)C1CC1)N1CCC(c2nc(C(F)(F)F)cs2)CC1 | 3% | -0.38 |
| CCn1ncnc1[C@@H](NC(=O)c1ccc(N2CC(=O)NC2=O)cc1)C1CC1 | 1% | -0.14 |
| CC(Oc1ccccc1)C(=O)N1CCCC1c1nc(-c2cccc(Cl)c2)no1 (stereo unspecified) | -1% | 0.1 |
| Cc1ccc(CNC(=O)CN2C(=O)CCn3nc(-c4cn(C)c5ccccc45)cc32)o1 | 3% | -0.55 |
| O=c1ccc(N2CCC[C@H](NS(=O)(=O)c3ccc(F)c(Cl)c3)C2)n[nH]1 | -10% | 1.3 |

| Compound | % Inhibition | Z score |
| --- | --- | --- |
| COc1ccc(CN2CCN(C(=O)N(C)C)[C@H]3CS(=O)(=O)C[C@H]32)cc1 | 5% | -0.76 |
| CCc1ccc(-c2ccc(C(=O)N3CCOC[C@H]3C(=O)O)o2)cc1 | -16% | 1.62 |
| CCC(O)C1CCCCN1Cc1c(C)nc2ccccn12 (stereo unspecified) | -5% | 0.87 |
| CCN(CC)C(=O)CN1CCCN(C(=O)c2ccc(-c3nncn3CC)cc2)CC1 | -7% | 0.9 |
| O=S(=O)(Cc1ccc(Cl)cc1-n1cncn1)CC1CC1 | -4% | 0.71 |
| O=C(NCc1ccc(N2CCOCC2)cc1)c1cn(CCN2CCOCC2)nn1 | -10% | 1.32 |
| Cc1nnc(CNc2ccccc2NC(=O)Cc2cccs2)n1C | -6% | 0.54 |
| CN1CCCC(CN=C(N)N(C)C2CC2)C1c1cccc(Cl)c1 (stereo unspecified) | 0% | 0.02 |
| O=C(c1cc(C2CC2)[nH]n1)N1CCCCCC1 | 1% | -0.15 |
| O=C(Cc1cccc(Cl)c1)N[C@H]1CCCN(c2cc(-c3ccccc3)n[nH]2)C1 | 7% | -0.66 |
| O=C(CCn1c2c(c3ccccc31)CCCC2)N1CCC2(CCCCO2)CC1 | -11% | 1.42 |
| Cc1ccc(CN2CC[C@@H](N(C)CCc3ccccn3)CCC2=O)cc1 | -11% | 1.5 |
| Fc1cccc(CN2CCC[C@@]3(CCN(Cc4cccn4-c4ncccn4)C3)C2)c1F | -8% | 1.14 |
| CCc1nc(C2(NCCNS(C)(=O)=O)CCCC2)no1 | -8% | 0.97 |
| CN1CCC(N2CCN(Cc3ccc(C4CCCC4)s3)C[C@@H]2CCO)CC1 | 7% | -0.99 |
| Cn1c(C(F)(F)F)nn(CCNS(=O)(=O)CCN2C(=O)CCCC2=O)c1=O | -4% | 0.47 |
| NC(=O)N1CCC[C@H](C(=O)OCCc2ccccc2C(F)(F)F)C1 | 15% | -1.69 |
| O=C(N[C@@H]1[C@@H]2CCO[C@@H]2[C@H]1N1CCCCC1)c1cccc(-c2ccco2)c1 | -18% | 3.13 |
| COc1ncc(-c2ccc(-c3ccn[nH]3)cc2)c(OC)n1 | -13% | 1.17 |
| O=C(Cc1ccccc1)Cn1cnc2c(c1=O)CCC2 | -10% | 1.05 |
| O=C(CC1=CCCCC1)NC[C@H](O)c1ccc(OC(F)F)cc1 | -14% | 1.53 |
| CC(C)c1ccc(OC/C=C/Cn2ccnc2)cc1 | -17% | 1.83 |
| N#Cc1cc2c(nc1N1CCC[C@H](C(F)(F)F)C1)CCC2 | 0% | 0.02 |
| Cc1ccn(C)c(=O)c1NCc1ccns1 | 0% | -0.01 |
| CCc1ccc(OCCN(C)C(=O)CCN2CCCC2=O)cc1 | 18% | -2.31 |
| O=C1Nc2ccc(S(=O)(=O)N3CCOCC3)cc2C1=O | -16% | 2.38 |
